Data taken from PMC4336329 (PLoS ONE, 2015).
Hit rate of the full screen: of about 310,000 compounds, about 14,000 (4.5%) showed an effect of 50% or more. The effect is printed as a negative number. This is one part of the list.

Each molecule was assayed against human ether-à-go-go-related gene (hERG) potassium channel (human, UniProt Q12809) (assay: primary screen, population patch clamp on CHO cells stably expressing hERG).
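Further: peak tail current of the secondary pulse compared with the same well before compound.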

Chain of human ether-à-go-go-related gene (hERG) potassium channel (Q12809 whole entry, looked up): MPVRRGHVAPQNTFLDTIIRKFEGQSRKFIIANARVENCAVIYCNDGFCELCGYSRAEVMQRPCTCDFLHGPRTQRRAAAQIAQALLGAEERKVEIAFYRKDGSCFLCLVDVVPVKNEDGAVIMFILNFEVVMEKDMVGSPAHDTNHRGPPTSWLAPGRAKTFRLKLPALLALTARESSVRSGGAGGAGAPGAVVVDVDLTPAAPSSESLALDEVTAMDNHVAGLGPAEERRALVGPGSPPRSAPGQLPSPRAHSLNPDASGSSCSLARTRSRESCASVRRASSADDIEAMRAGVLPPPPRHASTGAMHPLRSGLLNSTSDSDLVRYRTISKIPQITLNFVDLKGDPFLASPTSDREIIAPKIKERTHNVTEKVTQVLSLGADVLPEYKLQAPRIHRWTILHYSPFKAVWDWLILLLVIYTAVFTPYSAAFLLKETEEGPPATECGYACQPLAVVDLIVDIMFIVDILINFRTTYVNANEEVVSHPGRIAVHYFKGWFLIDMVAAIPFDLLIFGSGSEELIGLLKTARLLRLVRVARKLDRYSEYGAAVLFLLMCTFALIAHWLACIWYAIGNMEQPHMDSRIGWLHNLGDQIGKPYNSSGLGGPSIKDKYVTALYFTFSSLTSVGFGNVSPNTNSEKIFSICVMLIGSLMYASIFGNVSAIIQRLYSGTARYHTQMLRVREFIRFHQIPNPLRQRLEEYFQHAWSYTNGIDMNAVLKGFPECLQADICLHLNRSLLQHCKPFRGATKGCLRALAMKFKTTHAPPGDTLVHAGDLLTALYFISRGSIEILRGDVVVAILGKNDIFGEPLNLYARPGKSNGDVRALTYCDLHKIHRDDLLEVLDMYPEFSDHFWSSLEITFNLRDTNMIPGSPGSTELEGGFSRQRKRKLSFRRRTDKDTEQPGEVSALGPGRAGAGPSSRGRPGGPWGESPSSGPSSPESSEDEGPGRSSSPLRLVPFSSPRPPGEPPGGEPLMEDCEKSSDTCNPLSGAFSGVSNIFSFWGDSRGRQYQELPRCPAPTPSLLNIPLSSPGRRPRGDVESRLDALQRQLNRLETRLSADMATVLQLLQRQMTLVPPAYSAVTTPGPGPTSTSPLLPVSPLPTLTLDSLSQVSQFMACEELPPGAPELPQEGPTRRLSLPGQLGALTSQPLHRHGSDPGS

Row | Compound | hERG current change (%, negative = inhibition) at 10uM
1 | Cc1cccn2c(=O)c(/C=C3\SC(=S)N(CC(C)C)C3=O)c(NCCCOC(C)C)nc12 | 0.671%
2 | COC(=O)CCNC(=O)Cn1cnc2sc3c(c2c1=O)CCCC3 | 9.21%
3 | CSCCC(NC(=O)c1ccco1)C(=O)NCC(c1ccccc1)N(C)C (centres unmarked) | -9.02%
4 | Cn1c(Cc2ccccc2)nnc1SCC(=O)Nc1ccc(N2CCOCC2)cc1 | 3%
5 | COc1ccccc1CNC(=O)C(NS(=O)(=O)c1cccc2nsnc12)C(C)C (centres unmarked) | 0.845%
6 | CC(=O)Nc1ccc(NC(=O)/C=C/c2ccccc2)cc1 | -13.1%
7 | CCOc1ccc2[nH]c(=O)c(CN(CCc3ccccc3)C(=O)c3cnccn3)cc2c1 | -1.06%
8 | Cc1ccc(OCC(=O)Nc2ccc(NC(=O)c3ccco3)cc2)c(C)c1 | 11%
9 | COc1cc(OC)cc(C(=O)NCC2CCCN(Cc3cccc(C(C)=O)c3)C2)c1 (centres unmarked) | -25.3%
10 | Cc1cc(Nc2ccc(C)c(Br)c2)n2nc(C)nc2n1 | -10.2%
11 | COc1ccc(OC)c(C2=NOC(C(=O)Nc3cccc(C(C)=O)c3)C2)c1 (centres unmarked) | -12.4%
12 | COCCc1ncc(CN2CCCC(C(=O)Nc3cccc(-c4cccc(C)c4)c3)C2)cn1 (centres unmarked) | -56.6%
13 | O=S(=O)(Nc1ccccc1OC(F)F)c1ccc(S(=O)(=O)N2CCCC2)cc1 | -16.1%
14 | CCN(CC)C(=O)N1CCN(C(=O)N(CC)CC)CC1 | 8.36%
15 | COc1ccc(-c2[nH]n(-c3ccc([N+](=O)[O-])cc3)c(=O)c2C=NCC2CCCO2)cc1 (centres unmarked) | 21.1%
16 | O=C(CCc1ccccc1)Nc1ccc2c(c1)OCCO2 | -9.79%
17 | COC1CCN(C(=O)c2ccc(OC3CCN(CCc4ccccc4)CC3)cc2)CC1 | -29.8%
18 | CC12CC3CC(C)(C1)CC(C(=O)NCc1ccco1)(C3)C2 | -9.42%
19 | CC(O)c1c(-c2ccccc2)nn(C)c1Cl (centres unmarked) | 22.9%
20 | COc1ccc(Cl)cc1NC(=O)CNc1ccccc1F | 15.5%
21 | CCOC(=O)C1(CC2CC2)CCN(Cc2ccc3cccc(F)c3n2)CC1 | -48.3%
22 | CC(C)c1c(C(=O)N/N=C/c2cccs2)nnn1-c1nonc1N | 27.6%
23 | Cc1nnc(SCc2nc3ccccc3s2)n1N | 5.8%

Row | Compound | hERG current change (%, negative = inhibition) at 10uM
24 | Cc1sc2nc(CSC(C)C(=O)Nc3ccc(Cl)cn3)[nH]c(=O)c2c1C (centres unmarked) | 8.94%
25 | Oc1ccc2ccccc2c1C=Nc1ccccc1 | 3.96%
26 | CCCCNc1nc2ccccc2nc1Cl | 12.2%
27 | CC(C)OCCCNC(=S)NNC(=O)c1ccc(Cl)c(Cl)c1 | 1.09%
28 | CN(c1ccccc1)S(=O)(=O)c1ccc(Cl)c(C(=O)Nc2nn[nH]n2)c1 | 46.8%
29 | O=C(Nc1nnc(C2CC2)s1)c1ccc(S(=O)(=O)c2ccccc2)cc1 | 16.3%
30 | CCOc1cc(C(=S)N2CCOCC2)ccc1OS(=O)(=O)c1ccccc1 | -10%
31 | COc1cccc(NC(=O)COC(=O)C2CC3CCCC(C2)C3=O)c1 (centres unmarked) | -8.43%
32 | FC(F)(F)c1cc(-c2ccc3c(c2)OCO3)nc(NCc2ccco2)n1 | -6.85%
33 | CCc1nnc(NC(=O)C2CCCN2S(=O)(=O)c2ccc(F)cc2)s1 (centres unmarked) | -7.69%
34 | CCCCC(CC)Cn1c(N)c(C#N)c2nc3ccccc3nc21 (centres unmarked) | 2.28%
35 | Cc1cc(C)c(C)c(S(=O)(=O)N2CCCCC2C(=O)O)c1C (centres unmarked) | 11.4%
36 | Cc1ccc(Cc2cnc(N)s2)o1 | 4.19%
37 | C=C(C)COc1ccc(-c2[nH]ncc2-c2ccccc2)c(O)c1 | 19%
38 | Cc1ccsc1/C=N/N1CCOCC1 | 0.295%
39 | CN(CCOc1ccccc1)C(=S)Nc1ccc(OC(F)F)cc1 | -55.2%
40 | Cc1cc(C)n(-c2nc3ccccc3nc2N2CCN(S(=O)(=O)c3cccc(C#N)c3)CC2)n1 | -11.1%
41 | CCN(CC)C(=O)Cn1c(=O)n(Cc2ccccc2Cl)c2c1c(=O)n(C)c(=O)n2C | 2.2%
42 | Cc1cc(C(=O)CSc2nnnn2C)c(C)n1C1CC1 | -1.55%
43 | Cc1ccc(N2C(=O)N(CC(=O)Nc3cc(Cl)ccc3C)C(=O)C2C)cc1 (centres unmarked) | -1.75%
44 | COC(=O)N1C(=O)[C@@](c2ccccc2)(C(C)C)N1C(=O)OC | 19.3%
45 | CCN(CC)CCN1C(=O)C(=O)/C(=C(/O)c2ccc(S(=O)(=O)N3CCOCC3)cc2)C1c1ccc(C(C)C)cc1 (centres unmarked) | 11.9%
46 | CN(C)CCNc1ncnc2ccccc12.Cl | 7.66%

Row | Compound | hERG current change (%, negative = inhibition) at 10uM
47 | O=C(NNC(=O)c1cccs1)c1ccc(Cl)c([N+](=O)[O-])c1 | -6.26%
48 | Cn1cccc1CC(=O)N/N=C/c1ccc(Cl)c([N+](=O)[O-])c1 | -16.5%
49 | CCSC1=N/C(=C\C=C2/Oc3ccccc3N2CC)C(=O)S1 | -3.2%
50 | O=C(Nc1cccc(Br)c1)C1CCCC1 | 13.3%
51 | CSCCC(NC(=O)c1cccc(C)c1)C(=O)OCC(=O)NC(=O)c1cccn1C (centres unmarked) | -0.791%
52 | Cc1ccc(-c2nn(CC(=O)NN3CCOCC3)c(=O)c3ccccc23)cc1 | -1.66%
53 | CC(C)c1nc(SCC(=O)N2CCCCCC2)c2c(=O)n(C)c(=O)n(C)c2n1 | -11.2%
54 | CCC(Sc1ncnc2c1nnn2-c1ccc(F)cc1)C(=O)OC (centres unmarked) | -38.2%
55 | COc1ccc(C(=O)C[n+]2ccc(N(C)C)cc2)cc1.[Cl-] | 17.6%
56 | O=C(NC1CCCCC1)N1CCc2[nH]c3ccccc3c2C1 | 3.15%
57 | COc1ccccc1/C=C/CN1CCC(Oc2ccc(C(=O)N3CCCC3)cc2)CC1 | -24.3%
58 | CCOC(=O)c1cc(-c2ccccc2)sc1NC(=S)Nc1cc(C)ccn1 | 26.3%
59 | Cc1nc(-c2ccc(C(=O)NCCO)cc2)cs1 | 19.8%
60 | COc1ccc(Cl)cc1Nc1nc(-c2sc(NC(=O)c3ccco3)nc2C)cs1 | 21.9%
61 | COc1ccccc1N(CC(=O)NC(C)(C)C)C(=O)CCC(=O)Nc1nccs1 | -36.5%
62 | O=C(NCCc1c[nH]c2ccccc12)c1ccc2nc[nH]c2c1 | -6.62%
63 | Cc1ccc(C)c(N2CCN(c3ccc([N+](=O)[O-])cn3)CC2)c1 | -5.89%
64 | Cc1ccc(S(=O)(=O)Nc2c(C)ccc3nsnc23)cc1 | 2.3%
65 | C/C(=N/NS(=O)(=O)c1ccc(Br)cc1)c1ccc(C)o1 | -3.48%
66 | CC(C)CN1CCNC(=O)C1CC(=O)N(C)CC1CCOCC1 (centres unmarked) | 6.48%
67 | CC(C)C[C@@H]1NC(=O)[C@H](Cc2ccc(O)cc2)NC(=O)c2cc([N+](=O)[O-])cc(I)c2NCCC[C@@H](C(N)=O)NC1=O | -10.5%
68 | Cc1ccc(/C=N/NC(=O)CNC(=O)c2ccc(S(=O)(=O)N3CCCC3)cc2)o1 | -0.107%
69 | COc1ccc(C2=NN(C(C#N)c3ccc(OC)c(OC)c3)C(c3ccccc3)C2)cc1 (centres unmarked) | 23.8%

Row | Compound | hERG current change (%, negative = inhibition) at 10uM
70 | COc1ccc(NC(=O)Nc2cccc(C)n2)c(OC)c1 | 10.4%
71 | CN(C)C(CNC(=O)CNC(=O)c1ccc2ccccc2c1)c1ccccc1 (centres unmarked) | -20.2%
72 | Cc1ccccc1S(=O)(=O)/N=C(/c1ccccc1)N1CCOCC1 | 12.7%
73 | COc1ccc(CCNC(=O)C(=O)NCC2CCCN2S(=O)(=O)c2ccccc2)cc1OC (centres unmarked) | -26.6%
74 | c1csc(-c2nnc3ccccn23)c1 | -3.19%
75 | Cc1ccc(-c2nnc3ccc(SCC(=O)N4CCc5ccccc54)nn23)cc1 | -4.46%
76 | CCNc1nc(N)nc(-c2cc(Cl)ccc2OC)n1 | 5.75%
77 | COc1ccc(NC(=S)N2CCN(S(=O)(=O)c3ccc(C)cc3)CC2)cc1 | 5.38%
78 | Cc1ccc(N=C(NOC(=O)c2ccccc2)c2nonc2N)c(C)c1 | 8.26%
79 | O=C(Oc1c(Cl)cc(Cl)c2ccccc12)N1CCCC1 | -25.9%
80 | COc1ccc(C2=NOC(C(=O)Nc3cccnc3Cl)C2)cc1 (centres unmarked) | 3.21%
81 | CCCN(CCC)CCNc1c(NC2CCN(C(=O)OCC)CC2)c(=O)c1=O | 13.4%
82 | Cc1ccc(NC(=O)CSCC(=O)NCc2ccco2)cc1 | -0.0131%
83 | CC(C)(C)C1CCC2(CC1)CC(=O)c1ccccc1O2 (centres unmarked) | 19.8%
84 | O=C(Nc1ccc(O)cc1)c1ccc2c(c1)C(=O)N(Cc1ccccc1)C2=O | -1.73%
85 | Cc1c(C(=O)NC(=S)Nc2ccc(N3CCOCC3)cc2)cccc1[N+](=O)[O-] | 7.46%
86 | CN(C)c1ccc(N/C=C/C(=O)c2ccc(F)cc2)cc1 | 20.2%
87 | COC(=O)c1ccc(NC(=O)Nc2ccccc2C)cc1 | 14.7%
88 | Br.CCOC(=O)c1c(CSC(=N)N)n(C)c2cc(Br)c(OC(C)=O)cc12 | -68.7%
89 | S=C(Nc1ccc(Cl)cc1)NC1CC2CCC(C1)N2Cc1ccccc1 (centres unmarked) | -66.1%
